The text below walks through data of PubChem BioAssay AID1745853 (National Center for Advancing Translational Sciences (NCATS), 2022).

What all share (assay): Primary Screen for Target Class Profiling of Small Molecule Inhibitors of Methyltransferases
The target of assay [1] is Glycine N-methyltransferase (Homo sapiens) (UniProt Q14749). The settings on record: purified enzyme, MTase-Glo SAH luminescence; measured here: GNMT inhibition; at 40 µM; stronger effect = lower value. Summed up: (§1)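 Each enzyme was assayed with SAM and its substrate. SAH formation detected by MTase-Glo luminescence; single-point 40 uM screen[…].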
The target in assay [2] is Guanidinoacetate N-methyltransferase (Homo sapiens) (UniProt Q14353). Conditions: purified enzyme, MTase-Glo SAH luminescence; measured here: GAMT inhibition; at 40 µM; stronger effect = lower value. In a few lines: as §1
Assay [3] has as its target Histamine N-methyltransferase (Homo sapiens) (UniProt P50135). Conditions: purified enzyme, MTase-Glo SAH luminescence; measured here: HNMT inhibition; at 40 µM; stronger effect = lower value. Summed up: as §1
For assay [4], the target named is Nicotinamide N-methyltransferase (Homo sapiens) (UniProt P40261). Conditions: purified enzyme, MTase-Glo SAH luminescence; measured here: NNMT inhibition; at 40 µM; stronger effect = lower value. In a few lines:
as §1

In assay [5] the target is Phenylethanolamine N-methyltransferase (Homo sapiens) (UniProt P11086). Conditions: purified enzyme, MTase-Glo SAH luminescence; measured here: PNMT inhibition; at 40 µM; stronger effect = lower value. In a few lines:
as §1

Some of the results follow. The main result of the screen is listed elsewhere. These columns were measured beside it and carry no call.
% is scaled to controls: 0 for no effect and ±100 for the full control effect.

Take `COc1ccc(C)cc1NC(=O)N1Cc2ccccc2-n2cccc2C1C` (stereo not given): the activity change, negative = inhibition is 3.31% in assay [1]; 0% in assay [2]; -0.871% in assay [3]; -3.78% in assay [4]; 5.14% in assay [5].

With `CC[C@H]1CN2CC[C@H]1C[C@@H]2CN(Cc1cccs1)Cc1cccs1`, the activity change, negative = inhibition is -6.68% in assay [1]; -7.49% in assay [2]; -39.9% in assay [3]; -25% in assay [4]; -7.37% in assay [5].

Regarding `C[C@H]1O[C@@H](O[C@H]2CC[C@]3(C=O)C4CC[C@]5(C)[C@@H](C6=CC(=O)OC6)CC[C@]5(O)[C@@H]4CC[C@]3(O)C2)C[C@@H](O)[C@@H]1O` (stereo not given in full), the activity change, negative = inhibition in assay [1] was -2.22%; in assay [2], -9.91%; in assay [3], 3.35%; in assay [4] it was -20.3%; in assay [5], -0.844%.

For `CCC1c2cccn2-c2ccccc2CN1C(=O)NCc1ccc(F)cc1` (stereo not given), the activity change, negative = inhibition in assay [1] is -2.39%; in assay [2], -2.4%; in assay [3], -13.5%; in assay [4] it was -10%; in assay [5], -3.86%.

In the case of `COc1cccc(NC(=O)N2Cc3ccccc3-n3cccc3C2C)c1` (stereo not given), the activity change, negative = inhibition amounted to 10% in assay [1]; 0% in assay [2]; 3.33% in assay [3]; 2.13% in assay [4]; 6.42% in assay [5].

`COc1ccc(C2c3cccn3-c3ccccc3CN2C(=O)Nc2cccc(SC)c2)cc1` (stereo not given): the activity change, negative = inhibition in assay [1] is 3.23%; in assay [2], 4.72%; in assay [3], -0.547%; in assay [4], 0.571%; in assay [5] it was 1.51%.

As for `CC(N)[C@H](O)c1ccc(O)c(O)c1` (stereo not given in full), the activity change, negative = inhibition is -24% in assay [1]; 11.6% in assay [2]; 1.64% in assay [3]; -2.15% in assay [4]; 4.82% in assay [5].

For the molecule `CSc1ccc(C2c3cccn3-c3ccccc3CN2C(=O)Nc2ccc(C)c(C)c2)cc1` (stereo not given), the activity change, negative = inhibition came out at 2.53% in assay [1]; 2.75% in assay [2]; 4.6% in assay [3]; 11.5% in assay [4]; 11.3% in assay [5].

With `Cc1ncc(CNC(=O)N(CCCl)N=O)c(N)n1`, the activity change, negative = inhibition in assay [1] is -0.603%; in assay [2], 13.3%; in assay [3] it was 8.85%; in assay [4], -1.39%; in assay [5], 3.87%.

Turning to `CCOc1ccccc1NC(=O)N1Cc2ccccc2-n2cccc2C1c1cccc(Cl)c1` (stereo not given), the activity change, negative = inhibition was 14.8% in assay [1]; 1.8% in assay [2]; 7.63% in assay [3]; 6.51% in assay [4]; 6.92% in assay [5].

Take `Cc1c(Cl)cccc1NC(=O)N1Cc2ccccc2-n2cccc2C1C` (stereo not given): the activity change, negative = inhibition in assay [1] is 4.14%; in assay [2], 0.586%; in assay [3] it was -1.81%; in assay [4] it was -3.29%; in assay [5] it was 3.71%.

For `CN1CCN(C(=O)Cc2c[nH]c3ncc(-c4ccnn4C)cc23)CC1`, the activity change, negative = inhibition in assay [1] is -8.61%; in assay [2], -5.37%; in assay [3], -5.58%; in assay [4] it was -9.55%; in assay [5], -15.4%.

Consider `O=C([C@H]1CN2CCC1C[C@@H]2Cn1cc(-c2ccccn2)nn1)N1CCOCC1` (stereo not given in full), for which the activity change, negative = inhibition in assay [1] is -1.9%; in assay [2] it was -3.89%; in assay [3], -5.75%; in assay [4], -7.27%; in assay [5], -4.73%.

Regarding `Cc1ccc(NC(=O)N2Cc3ccccc3-n3cccc3C2C(C)C)cc1Cl` (stereo not given), the activity change, negative = inhibition in assay [1] came out at 0.303%; in assay [2], 0%; in assay [3], 5.19%; in assay [4] it was 2.64%; in assay [5] it was 2.07%.

On to `COc1ccccc1NC(=O)N1Cc2ccccc2-n2cccc2C1c1ccccc1Cl` (stereo not given), for which the activity change, negative = inhibition was 6.86% in assay [1]; 0.916% in assay [2]; -0.057% in assay [3]; -1.7% in assay [4]; 4.79% in assay [5].

Turning to `COc1ccc2[nH]cc(CCN)c2c1`, the activity change, negative = inhibition is -7.42% in assay [1]; 1.83% in assay [2]; -14% in assay [3]; -5.29% in assay [4]; 1.71% in assay [5].

In the case of `CCCS(=O)(=O)NC[C@H]1C[C@@H]2CCN1C[C@@H]2c1cc(C2CCCCC2)nn1C`, the activity change, negative = inhibition is -3.25% in assay [1]; -2.39% in assay [2]; -6.62% in assay [3]; -10.9% in assay [4]; -4.08% in assay [5].

For the molecule `CCOc1ccc(NC(=O)N2Cc3ccccc3-n3cccc3C2c2cccc(Cl)c2)cc1` (stereo not given), the activity change, negative = inhibition in assay [1] worked out at 16%; in assay [2], 2.62%; in assay [3], 9.89%; in assay [4], 8.82%; in assay [5] it was 10.9%.

As for `COc1ccc(C2c3cccn3-c3ccccc3CN2C(=O)Nc2cccc(Br)c2)cc1` (stereo not given), the activity change, negative = inhibition in assay [1] worked out at 14.4%; in assay [2], 0.743%; in assay [3] it was 6.68%; in assay [4] it was 4.11%; in assay [5], 9.73%.

Consider `O=C(NCc1ccco1)N1Cc2ccccc2-n2cccc2C1c1ccccc1` (stereo not given), for which the activity change, negative = inhibition came out at 11.3% in assay [1]; 0.493% in assay [2]; 4.47% in assay [3]; 3.21% in assay [4]; 9.48% in assay [5].

`C[C@H]1C/C=C/[C@H]2[C@@H]3O[C@]3(C)[C@@H](C)[C@H]3[C@H](Cc4ccccc4)NC(=O)[C@]32OC(=O)O/C=C/[C@@](C)(O)C1=O`: the activity change, negative = inhibition in assay [1] is -2.76%; in assay [2] it was -1.06%; in assay [3] it was 2.85%; in assay [4], -14.8%; in assay [5], 1.16%.

On to `CCCSc1ncc(CN2CCCC3(CCNC3)C2)cn1` (stereo not given), for which the activity change, negative = inhibition in assay [1] was -4.47%; in assay [2] it was -9.66%; in assay [3], -24.8%; in assay [4] it was -14.3%; in assay [5], -11.3%.

As for `CC12CCC3C(C1)c1c(cc(O)c(C(=O)c4ccccc4)c1OC3(C)C)O2` (stereo not given), the activity change, negative = inhibition in assay [1] is -2%; in assay [2], 1.63%; in assay [3], 1.33%; in assay [4], -16.9%; in assay [5], -3.73%.

Regarding `COC1=CC(=O)O[C@@H](CCc2ccccc2)C1`, the activity change, negative = inhibition in assay [1] is -4.14%; in assay [2], -4.31%; in assay [3], 2.84%; in assay [4] it was -20.5%; in assay [5], -1.15%.

For `CC(C)CCNC(=O)N1Cc2ccccc2-n2cccc2C1c1ccc(Cl)cc1` (stereo not given), the activity change, negative = inhibition in assay [1] came to 0.527%; in assay [2], 3.96%; in assay [3], 7.63%; in assay [4], 1.61%; in assay [5], 8.18%.

For `CC1=CC2OC3CC(O)[C@](C)([C@@]2(C)C(O)C1=O)[C@]31CO1` (stereo not given in full), the activity change, negative = inhibition is 0.171% in assay [1]; 8.49% in assay [2]; 11.9% in assay [3]; -5.92% in assay [4]; 5.85% in assay [5].

`CCOC(=O)c1ccccc1NC(=O)N1Cc2ccccc2-n2cccc2C1c1cccc(Cl)c1` (stereo not given): the activity change, negative = inhibition in assay [1] was determined as 8.23%; in assay [2], 1.06%; in assay [3], 2.49%; in assay [4], 7.34%; in assay [5], 5.64%.

In the case of `C[C@@H]1C[C@@H](O)[C@]2(O)O[C@@H]3C[C@@]4(C=O)C(CC[C@@H]5C4CC[C@]4(C)[C@@H](C6=CC(=O)OC6)CC[C@]54O)C[C@H]3O[C@@H]2O1` (stereo not given in full), the activity change, negative = inhibition is -6.71% in assay [1]; -7.54% in assay [2]; 3.83% in assay [3]; -23% in assay [4]; -0.704% in assay [5].

As to `Cn1nc(-c2cccs2)cc1[C@H]1CN2CC[C@H]1C[C@@H]2CNC(=O)C1CCCCC1`, the activity change, negative = inhibition is -8% in assay [1]; -7.98% in assay [2]; -11.6% in assay [3]; -19.9% in assay [4]; -11.8% in assay [5].
